The structures appear in SMILES notation. Values joined by “and” are separate entries in the source; they are usually repeats but may differ in a detail not shown here. Identical values can stand only once. About 800 (1.6%) of roughly 50,000 compounds showed an effect of 50% or more. Some of the results follow.

For 73 compounds, displacement results are on record in PubChem BioAssay AID1240 (Sanford-Burnham Center for Chemical Genomics, 2008).

The target of this assay is Bcl-2-like protein 10 (Homo sapiens) (UniProt Q9HD36). Briefly: TR3 peptide-Bcl-B binding displacers, biochemical primary FP assay, phenotype converters (AID 1240).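 Further: 0% = Bcl-B with tracer peptide and DMSO and 100% = tracer peptide lacking Bcl-B.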 The following applies: GST-Bcl-B / FITC-TR3 peptide fluorescence polarization; stronger effect = higher value; compound at 3.75 mg/L. (In general: Fluorescence polarisation rises when a labelled molecule tumbles more slowly, as on binding a larger partner.)
Chain of UniProt Q9HD36 (Q9HD36 whole entry, looked up): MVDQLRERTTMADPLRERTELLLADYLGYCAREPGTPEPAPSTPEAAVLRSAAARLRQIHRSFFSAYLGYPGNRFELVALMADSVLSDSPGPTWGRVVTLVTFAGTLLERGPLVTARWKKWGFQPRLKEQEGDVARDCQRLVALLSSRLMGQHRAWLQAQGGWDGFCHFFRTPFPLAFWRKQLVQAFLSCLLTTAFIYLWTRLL
For `COc1ccccc1-n1c(SCC(=O)c2ccc(Cl)cc2)nc2ccccc2c1=O`, the displacement is -0.7%.
The same measure for `CC1=C(C)CC2C(=O)N(c3cccc(C(F)(F)F)c3)C(=O)C2C1` (stereo not drawn): -12.8%; for `COc1cc(/C=N/N2C(=O)c3cccc4cccc(c34)C2=O)cc(I)c1O`: 7.1%; for `Cc1cnc2sc(C(=O)Nc3ccccc3)c(C(=O)O)n2c1=O`: -5.8%.
The same measure for `Cc1ccc(C2(C)NN=C(c3ccccc3)S2)o1` (stereo not drawn): -3.5%; for `Cc1cc(C)c(C#N)c(SCc2ccc(Br)cc2)n1`: 13.8%; for `Cc1cccc(N2C(=O)C(Cl)=C(Nc3ccc(C)c(Cl)c3)C2=O)c1`: 1.9%.
To `O=C(Nc1ccc(I)cc1)C1COc2ccccc2O1` (stereo not drawn) belongs -6.8%.
Take `CCN(CC)CCSc1nc(O)c(Cc2ccccc2)c(=O)[nH]1`: the displacement is -7.1%.
Take `COc1ccc(N(CC(=O)Nc2c(C)n(C)n(-c3ccccc3)c2=O)S(=O)(=O)c2ccccc2)c(OC)c1`: the displacement amounted to 1.6%.
The same measure for `Cc1nn(C)c2[nH]c(C(F)(F)F)cc(=O)c12`: 11.5%.
The same measure for `CCOC(=O)C1NN=C(C(=O)c2ccccc2)C1c1ccc(OC)cc1` (stereo not drawn): -6.5%.
The same measure for `CCOc1ccc2c(CC)cc(=O)oc2c1`: 12.3%; for `COc1ccc(C(=O)N2N=C(c3ccc(Br)cc3)CC2(O)C(F)(F)F)cc1` (stereo not drawn): -6.7%.
For the compound `CCOC(=O)C1=C(C)N=c2s/c(=C\c3ccc(I)cc3)c(=O)n2C1c1ccc(OC)c(OC)c1` (stereo not drawn), the displacement came to 111%.
To `O=C1c2ccc(Oc3ccc([N+](=O)[O-])cc3)cc2C(=O)N1c1cccnc1` belongs 10%; to `CCCOC(=O)NC(c1ccccc1)C(Cl)(Cl)Cl` (stereo not drawn), 0.7%; to `Cc1ccccc1C1C(C=O)=C(c2cccs2)Oc2ccccc21` (stereo not drawn), 6%.
`Cc1cccc(NCC(O)Cn2c3ccccc3c3ccccc32)c1C` (stereo not drawn): the displacement is -1.9%.
To `COc1ccc(/C=C2/SC(=S)NC2=O)cc1OCc1ccc(Cl)cc1` belongs 4.2%.
To `CC(=O)CC1(O)C(=O)Nc2ccc(Br)cc21` (stereo not drawn) belongs 10.6%.
As to `O=C(NCC1CCCO1)c1ccc2c(c1)C(=O)N(N1C(=O)c3ccccc3C1=O)C2=O` (stereo not drawn), the displacement is -2.8%.
To `Cc1ccc(S(=O)(=O)NCCSCc2ccccc2Cl)cc1[N+](=O)[O-]` belongs -8.5%; to `CCCCCCCNc1nc(OC)nc(N2CCCCC2)n1`, 0.8%; to `O=C(Nc1ncc(Cc2ccc(Cl)cc2Cl)s1)c1ccccc1Br`, 12.1%.
To `O=C(COc1ccc(Cl)cc1Cl)N1CCN(c2cccc(Cl)c2)CC1` belongs -5%.
The same measure for `Cc1cc(Cl)ccc1NS(=O)(=O)c1cccc([N+](=O)[O-])c1`: -1.2%; for `Cc1cc(C)cc(NC(=O)COc2ccccc2)c1`: 4.6%.
Regarding `Cc1ccc(-c2ccccc2)n1-c1cccc2cccnc12`, the displacement amounted to 12.2%.
The same measure for `COc1ccc(C(=O)c2c(C)oc3c2cc(O)c2ccccc23)cc1`: 6.3%; for `CN1CCN(/N=C/c2ccc([N+](=O)[O-])s2)CC1`: -2.3%; for `NS(=O)(=O)c1cccc(NC(=O)Cc2ccccc2)c1`: -11.1%.
Consider `COc1cc(CNc2cccc(C)c2)cc(OC)c1OC`, for which the displacement was 5.3%.
The same measure for `COc1cccc(N2C(=O)/C(=C/c3cccc4ccccc34)SC2=S)c1`: 6.6%; for `COc1ccc(C)cc1NC(=O)C(=O)NCCCO`: 10.3%.
For `CCCCCCCN1C(=O)/C(=C2\SC(=S)NC2=O)c2ccccc21`, the displacement worked out at 7.1%.
For the compound `COc1cc(C(=O)Nc2ccc3oc(-c4cccnc4)nc3c2)cc(OC)c1OC`, the displacement was 4%.
To `CC(=O)Nc1ccccc1NC(=O)c1ccccc1Br` belongs 0%; to `CCC(=O)NC(Nc1cc(Cl)ccc1OC)(C(F)(F)F)C(F)(F)F`, -9.3%.
The same measure for `O=C(Nc1sc2c(c1C(=O)N1CCCCC1)CCCC2)c1cccs1`: 3%; for `Cc1ccc(NC(=O)c2ccc(-c3ccccc3)cc2)cc1F`: -6%.
To `O=C1CC(n2cnc3ccccc32)C(=O)N1c1ccccc1` (stereo not drawn) belongs 0.5%; to `COc1ccc(NC(=O)CSc2ncccn2)cc1`, 5.6%; to `CCOC(=O)C1=C(C)NC(=S)NC1c1cccc(C)c1` (stereo not drawn), -2.8%.
In the case of `Cc1ccc(C(=O)Nc2cccc(-c3nc4ccccc4s3)c2C)cc1C`, the displacement worked out at 2.3%.
The same measure for `Cc1nnc(SCC(=O)NC(C)c2ccccc2)[nH]c1=O` (stereo not drawn): -3.9%.
The same measure for `CCCNC(=O)c1c(NC(=O)c2ccccc2C)sc2c1CCC2`: -14.5%.
On to `CCOC(=O)C(=O)c1cc(-c2ccccc2)c(-c2ccccc2)s1`, for which the displacement is 7.9%.
The same measure for `Cc1cc(C)nc(NC(=O)CC(c2ccccc2)c2ccccc2)c1`: 4.1%; for `COC(=O)C(NC(=O)C(C)NC(=O)OCc1ccccc1)C(C)C` (stereo not drawn): -10.4%; for `O=C(Nc1ccc(S(=O)(=O)Nc2ncccn2)cc1)c1cc2ccccc2o1`: -2.5%.
To `CC(=O)Oc1ccc(-c2cccc(C(=O)O)c2)cc1` belongs -7.2% and 9.3%; to `O=C(Nc1ccc(S(=O)(=O)N2CCOCC2)cc1)c1ccc(Cl)cc1`, -13.6%; to `COC(=O)C1=C(C)N(C)C(=O)NC1c1ccccc1OCc1ccccc1` (stereo not drawn), 0.6%.
The same measure for `O=C(Oc1ccc(/C=N/O)cc1)c1ccc(Br)cc1`: 1.6%; for `CNCCOc1cc(C)nc(-c2ccccc2)n1`: 10.2%; for `O=[N+]([O-])c1ccc(/C=N/Nc2ccc(C(F)(F)F)cn2)cc1`: -1%.
For `COC(=O)c1ccc(-c2nnc(Nc3ccccc3C)c3ccccc23)cc1`, the displacement was 21.6%.
To `O=C(O)c1cccc(-c2ccc(/C=C3\SC(=S)N(c4cccc(F)c4)C3=O)o2)c1` belongs -46.8%; to `COc1ccccc1/C=C1\SC(=S)N(c2ccc(Br)cc2)C1=O`, 7.7%.
To `Cc1cc(OCC(=O)Nc2ccc(F)c([N+](=O)[O-])c2)ccc1Cl` belongs 7.6%; to `O=C(O)CCN1C(=O)/C(=C/c2ccc(Cl)c([N+](=O)[O-])c2)SC1=S`, 16.5%.
The same measure for `COc1ccccc1/C=N/Nc1nc(-c2ccccc2)nc(C)c1C`: -3.8%.
Take `O=C(Cc1nnc(NC(=O)Nc2ccccc2)s1)Nc1ccccc1`: the displacement came to 4.5%.
The same measure for `CC(C)CCc1c(O)nc(SCCN(C)C)[nH]c1=O`: -5.6%; for `Cc1ccc(C(=O)NC(=S)Nc2ncc(C(F)(F)F)cc2Cl)cc1`: -10.6%.
The same measure for `COCCCNC(=O)c1ccc(C(=O)NCCCOC)cc1`: -6.5%; for `CCOc1ccc(NC(=O)C(C)Sc2ccc(Cl)cc2)cc1` (stereo not drawn): -0.7%; for `OC(COCc1ccc(Cl)cc1)CSc1nc2ccccc2s1` (stereo not drawn): -4.5%.
The same measure for `c1cnc(Nc2nc(-c3cccnc3)cs2)nc1`: 12.8%; for `N=C(SC1CC(=O)N(c2cccc3ccccc23)C1=O)N1N=C(c2cccs2)CC1c1ccc(Br)cc1` (stereo not drawn): 85.7%.
As for `Cc1ccc([N+](=O)[O-])cc1NC(=O)C1CC1`, the displacement is -2.5%.
To `Cc1cc(OCC(=O)Nc2c(C)cc(Br)cc2C)ccc1Cl` belongs 10.5%.
